Data from article PMC10611751.
These are yes or no findings as the source states them, for the method shown. Some entries that bind do so weakly or less than the wild type.

Amino acid sequences for entries named in this document (tags omitted). A change or cut given only in a name is not applied to a line headed by its entry. Chains listed by the source or under a name are the forms on record and can include a tag or linker. Residues count along the entry.
Ankyrin-G 24 ANK repeats (residues 38-855) (O70511, residues 38-855): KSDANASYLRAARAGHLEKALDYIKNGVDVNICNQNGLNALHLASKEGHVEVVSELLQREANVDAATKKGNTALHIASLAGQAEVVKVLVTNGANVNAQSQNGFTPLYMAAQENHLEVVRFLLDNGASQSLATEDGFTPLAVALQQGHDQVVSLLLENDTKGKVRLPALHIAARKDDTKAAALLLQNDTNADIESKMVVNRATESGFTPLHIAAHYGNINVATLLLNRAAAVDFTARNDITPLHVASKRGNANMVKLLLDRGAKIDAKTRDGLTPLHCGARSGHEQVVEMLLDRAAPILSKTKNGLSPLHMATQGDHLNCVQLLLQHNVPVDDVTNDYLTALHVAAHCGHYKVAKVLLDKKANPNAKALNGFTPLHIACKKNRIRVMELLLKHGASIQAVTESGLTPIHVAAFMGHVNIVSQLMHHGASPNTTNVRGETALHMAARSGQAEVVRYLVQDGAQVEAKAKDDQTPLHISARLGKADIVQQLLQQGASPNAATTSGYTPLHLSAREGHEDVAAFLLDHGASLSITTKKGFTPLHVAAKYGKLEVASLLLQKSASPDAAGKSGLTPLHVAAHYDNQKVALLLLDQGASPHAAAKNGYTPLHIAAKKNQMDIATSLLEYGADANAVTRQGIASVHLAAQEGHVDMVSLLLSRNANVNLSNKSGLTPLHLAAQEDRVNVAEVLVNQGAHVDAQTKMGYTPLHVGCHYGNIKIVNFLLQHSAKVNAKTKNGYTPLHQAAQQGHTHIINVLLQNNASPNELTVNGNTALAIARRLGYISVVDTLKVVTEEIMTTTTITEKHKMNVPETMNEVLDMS
Ankyrin-G ANK repeats 8-14 (O70511, residues 275-500): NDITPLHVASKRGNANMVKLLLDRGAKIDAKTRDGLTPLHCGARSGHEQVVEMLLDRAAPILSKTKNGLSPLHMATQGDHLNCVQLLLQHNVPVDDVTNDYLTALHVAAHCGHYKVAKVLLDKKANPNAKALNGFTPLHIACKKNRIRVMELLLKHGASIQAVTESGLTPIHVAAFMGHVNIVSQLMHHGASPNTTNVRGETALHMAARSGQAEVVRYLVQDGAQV
UniProt Q02248: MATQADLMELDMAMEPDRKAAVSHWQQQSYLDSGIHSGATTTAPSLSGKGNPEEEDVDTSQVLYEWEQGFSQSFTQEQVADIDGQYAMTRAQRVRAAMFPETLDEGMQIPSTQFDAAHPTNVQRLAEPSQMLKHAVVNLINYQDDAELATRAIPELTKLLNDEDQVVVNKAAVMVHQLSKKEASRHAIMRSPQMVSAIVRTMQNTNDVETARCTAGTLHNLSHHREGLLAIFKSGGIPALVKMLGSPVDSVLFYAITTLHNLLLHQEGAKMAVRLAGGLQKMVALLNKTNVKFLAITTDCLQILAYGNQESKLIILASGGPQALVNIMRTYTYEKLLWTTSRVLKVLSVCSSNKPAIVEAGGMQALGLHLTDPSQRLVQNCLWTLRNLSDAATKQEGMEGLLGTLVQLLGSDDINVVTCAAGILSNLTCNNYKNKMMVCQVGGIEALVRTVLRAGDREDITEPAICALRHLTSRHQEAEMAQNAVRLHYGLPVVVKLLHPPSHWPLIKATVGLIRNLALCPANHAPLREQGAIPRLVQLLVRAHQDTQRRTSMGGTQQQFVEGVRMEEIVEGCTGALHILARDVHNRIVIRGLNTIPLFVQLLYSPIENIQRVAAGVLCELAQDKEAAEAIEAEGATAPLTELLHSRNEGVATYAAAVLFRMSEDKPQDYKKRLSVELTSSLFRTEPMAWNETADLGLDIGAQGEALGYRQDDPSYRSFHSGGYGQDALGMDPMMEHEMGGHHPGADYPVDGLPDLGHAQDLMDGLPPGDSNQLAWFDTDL
UniProt P30999, residues 324-938: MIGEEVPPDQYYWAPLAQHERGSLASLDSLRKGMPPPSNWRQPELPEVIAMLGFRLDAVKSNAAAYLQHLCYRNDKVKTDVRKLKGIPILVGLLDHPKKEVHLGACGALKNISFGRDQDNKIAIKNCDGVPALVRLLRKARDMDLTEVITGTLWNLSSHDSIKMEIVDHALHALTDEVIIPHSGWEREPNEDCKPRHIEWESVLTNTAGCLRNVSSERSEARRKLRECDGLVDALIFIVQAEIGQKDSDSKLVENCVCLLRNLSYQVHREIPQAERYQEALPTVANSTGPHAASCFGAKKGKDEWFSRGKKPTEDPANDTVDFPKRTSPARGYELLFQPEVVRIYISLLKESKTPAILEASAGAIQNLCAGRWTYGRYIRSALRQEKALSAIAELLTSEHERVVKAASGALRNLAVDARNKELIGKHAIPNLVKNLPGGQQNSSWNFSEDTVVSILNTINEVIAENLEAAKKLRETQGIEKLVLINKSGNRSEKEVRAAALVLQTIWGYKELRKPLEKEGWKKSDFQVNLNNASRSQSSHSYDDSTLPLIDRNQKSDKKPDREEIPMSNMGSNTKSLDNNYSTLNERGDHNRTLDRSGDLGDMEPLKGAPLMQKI
E-cadherin C-terminal domain (residues 734-884) (P09803, residues 734-884): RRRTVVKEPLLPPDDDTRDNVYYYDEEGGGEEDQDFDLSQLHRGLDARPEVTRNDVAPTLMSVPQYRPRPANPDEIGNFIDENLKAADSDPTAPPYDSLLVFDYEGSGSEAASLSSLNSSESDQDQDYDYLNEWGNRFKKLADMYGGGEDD
E-cadherin 734-775 (P09803, residues 734-775): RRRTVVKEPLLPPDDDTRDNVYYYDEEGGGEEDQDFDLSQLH
E-cadherin 751-775 (site-1) (P09803, residues 751-775): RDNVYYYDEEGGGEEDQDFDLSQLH
E-cadherin 776-884 (P09803, residues 776-884): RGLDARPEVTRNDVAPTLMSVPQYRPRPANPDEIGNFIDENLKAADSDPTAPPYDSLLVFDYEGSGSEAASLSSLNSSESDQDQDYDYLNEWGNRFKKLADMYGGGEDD
E-cadherin 828-869 (containing both site-2 and site-3) (P09803, residues 828-869): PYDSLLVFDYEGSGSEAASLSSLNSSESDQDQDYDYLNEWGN
E-cadherin CTD site-1 to A (P09803, form named): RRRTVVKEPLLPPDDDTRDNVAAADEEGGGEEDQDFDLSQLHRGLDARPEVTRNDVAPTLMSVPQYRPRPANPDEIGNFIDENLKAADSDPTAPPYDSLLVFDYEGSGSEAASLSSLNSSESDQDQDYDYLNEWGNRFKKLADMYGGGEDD
E-cadherin CTD site-1, 2 to A (P09803, form named): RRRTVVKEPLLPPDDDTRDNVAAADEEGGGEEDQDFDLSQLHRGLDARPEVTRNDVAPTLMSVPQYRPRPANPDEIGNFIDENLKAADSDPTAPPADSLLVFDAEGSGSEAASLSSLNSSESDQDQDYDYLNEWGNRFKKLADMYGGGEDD
E-cadherin CTD site-1, 2, 3 to A (a total of 8 aromatic residue substitutions) (P09803, form named): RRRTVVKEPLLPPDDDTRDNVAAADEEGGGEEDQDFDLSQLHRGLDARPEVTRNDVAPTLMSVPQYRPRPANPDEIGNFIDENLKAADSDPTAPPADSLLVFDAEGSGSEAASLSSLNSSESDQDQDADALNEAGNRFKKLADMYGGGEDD
E-cadherin CTD site-1, 3 to A (P09803, form named): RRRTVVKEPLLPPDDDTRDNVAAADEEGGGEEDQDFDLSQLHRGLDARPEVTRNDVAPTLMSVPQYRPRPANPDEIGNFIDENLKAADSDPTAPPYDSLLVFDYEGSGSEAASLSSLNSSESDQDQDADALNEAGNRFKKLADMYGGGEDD
E-cadherin CTD site-2 to A (P09803, form named): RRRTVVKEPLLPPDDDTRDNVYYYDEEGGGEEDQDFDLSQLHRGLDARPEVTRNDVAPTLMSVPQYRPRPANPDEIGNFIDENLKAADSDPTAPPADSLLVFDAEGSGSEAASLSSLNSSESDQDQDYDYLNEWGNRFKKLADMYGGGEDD
E-cadherin CTD site-2, 3 to A (P09803, form named): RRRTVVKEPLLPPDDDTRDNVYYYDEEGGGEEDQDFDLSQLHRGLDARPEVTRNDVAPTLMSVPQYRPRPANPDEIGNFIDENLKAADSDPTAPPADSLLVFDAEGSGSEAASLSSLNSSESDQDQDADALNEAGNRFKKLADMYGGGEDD
E-cadherin CTD site-3 to A (P09803, form named): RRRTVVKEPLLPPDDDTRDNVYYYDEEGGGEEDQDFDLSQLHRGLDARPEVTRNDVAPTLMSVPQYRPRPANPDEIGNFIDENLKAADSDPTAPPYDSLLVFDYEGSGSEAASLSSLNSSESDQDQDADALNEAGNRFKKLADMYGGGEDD

Assays:
[1] = biological target: Ankyrin-G 24 ANK repeats (residues 38-855) (UniProt O70511); assay: ITC; E-cadherin proteins in the syringe (e.g. 200 μM Trx-E-cadherin) titrated into AnkG in the cell (e.g. 20 μM Trx-AnkG R1-24); 25 °C; 50 mM Tris, 100 mM NaCl, 1 mM EDTA, 1 mM DTT, pH 7.8; one-site binding model; both purified
[2] = biological target: Ankyrin-G ANK repeats 8-14 (UniProt O70511); assay: as above
[3] = biological target: full-length β-catenin 1-781 (mouse) (UniProt Q02248); assay: ITC; a complex of two proteins formed beforehand titrated to the third protein; 25 °C; 50 mM Tris, 100 mM NaCl, 1 mM EDTA, 1 mM DTT, pH 7.8; both purified
[4] = biological target: Ankyrin-G 24 ANK repeats (residues 38-855) (UniProt O70511); assay: SEC; analytical gel filtration chromatography (FPLC) of E-cadherin CTD, AnkG R1-24 and their 1:1 mixture; both purified
[5] = biological target: p120 catenin 324-938 (mouse) (UniProt P30999); assay: ITC; E-cadherin CTD WT and variants with β-catenin 1-781 or p120 catenin 324-938; 25 °C; 50 mM Tris, 100 mM NaCl, 1 mM EDTA, 1 mM DTT, pH 7.8; one-site binding model; which protein was in the syringe is not stated; both purified
[6] = biological target: full-length β-catenin 1-781 (mouse) (UniProt Q02248); assay: as above
[7] = biological target: Ankyrin-G 24 ANK repeats (residues 38-855) (UniProt O70511); assay: ITC; a complex of two proteins formed beforehand titrated to the third protein; 25 °C; 50 mM Tris, 100 mM NaCl, 1 mM EDTA, 1 mM DTT, pH 7.8; both purified

binding [1]	Substance	further results
binds	E-cadherin 734-775 (from UniProt P09803 734-775) (domain or fragment)	–
–	E-cadherin 751-775 (site-1) (from UniProt P09803 751-775) (domain or fragment)	binding [2]: binds
binds	E-cadherin 776-884 (from UniProt P09803 776-884) (domain or fragment)	–
–	E-cadherin 776-884–AnkG R1-24 complex (from UniProt P09803 776-884; O70511 38-855)	binding [3]: binds
–	E-cadherin 828-869 (containing both site-2 and site-3) (from UniProt P09803 828-869) (domain or fragment)	binding [2]: binds
–	E-cadherin C-terminal domain (residues 734-884) (from UniProt P09803 734-884) (domain or fragment)	binding [4]: binds; binding [5]: binds; binding [6]: binds
binds	E-cadherin CTD site-1 to A (from UniProt P09803 734-884) (domain or fragment)	–
binds	E-cadherin CTD site-1, 2 to A (from UniProt P09803 734-884) (domain or fragment)	–
no binding	E-cadherin CTD site-1, 2, 3 to A (a total of 8 aromatic residue substitutions) (from UniProt P09803 734-884) (domain or fragment)	–
binds	E-cadherin CTD site-1, 3 to A (from UniProt P09803 734-884) (domain or fragment)	–
binds	E-cadherin CTD site-2 to A (from UniProt P09803 734-884) (domain or fragment)	–
binds	E-cadherin CTD site-2, 3 to A (from UniProt P09803 734-884) (domain or fragment)	–
binds	E-cadherin CTD site-3 to A (from UniProt P09803 734-884) (domain or fragment)	–
–	E-cadherin CTD–AnkG R1-24 complex (from UniProt P09803 734-884; O70511 38-855)	binding [3]: binds
–	E-cadherin CTD–β-catenin complex (from UniProt P09803 734-884; Q02248 1-781)	binding [7]: binds
